Measured values from PMC4336329 (PLoS ONE, 2015).
Out of some 310,000 compounds screened, about 14,000 (4.5%) showed an effect of 50% or more. Effects have a minus sign here. The list shows a part of the results.

biological target: human ether-à-go-go-related gene (hERG) potassium channel (human, UniProt Q12809); assay: primary screen, population patch clamp on CHO cells stably expressing hERG
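Further: peak tail current of the secondary pulse compared with the same well before compound.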

Sequence of human ether-à-go-go-related gene (hERG) potassium channel (Q12809 whole entry, looked up): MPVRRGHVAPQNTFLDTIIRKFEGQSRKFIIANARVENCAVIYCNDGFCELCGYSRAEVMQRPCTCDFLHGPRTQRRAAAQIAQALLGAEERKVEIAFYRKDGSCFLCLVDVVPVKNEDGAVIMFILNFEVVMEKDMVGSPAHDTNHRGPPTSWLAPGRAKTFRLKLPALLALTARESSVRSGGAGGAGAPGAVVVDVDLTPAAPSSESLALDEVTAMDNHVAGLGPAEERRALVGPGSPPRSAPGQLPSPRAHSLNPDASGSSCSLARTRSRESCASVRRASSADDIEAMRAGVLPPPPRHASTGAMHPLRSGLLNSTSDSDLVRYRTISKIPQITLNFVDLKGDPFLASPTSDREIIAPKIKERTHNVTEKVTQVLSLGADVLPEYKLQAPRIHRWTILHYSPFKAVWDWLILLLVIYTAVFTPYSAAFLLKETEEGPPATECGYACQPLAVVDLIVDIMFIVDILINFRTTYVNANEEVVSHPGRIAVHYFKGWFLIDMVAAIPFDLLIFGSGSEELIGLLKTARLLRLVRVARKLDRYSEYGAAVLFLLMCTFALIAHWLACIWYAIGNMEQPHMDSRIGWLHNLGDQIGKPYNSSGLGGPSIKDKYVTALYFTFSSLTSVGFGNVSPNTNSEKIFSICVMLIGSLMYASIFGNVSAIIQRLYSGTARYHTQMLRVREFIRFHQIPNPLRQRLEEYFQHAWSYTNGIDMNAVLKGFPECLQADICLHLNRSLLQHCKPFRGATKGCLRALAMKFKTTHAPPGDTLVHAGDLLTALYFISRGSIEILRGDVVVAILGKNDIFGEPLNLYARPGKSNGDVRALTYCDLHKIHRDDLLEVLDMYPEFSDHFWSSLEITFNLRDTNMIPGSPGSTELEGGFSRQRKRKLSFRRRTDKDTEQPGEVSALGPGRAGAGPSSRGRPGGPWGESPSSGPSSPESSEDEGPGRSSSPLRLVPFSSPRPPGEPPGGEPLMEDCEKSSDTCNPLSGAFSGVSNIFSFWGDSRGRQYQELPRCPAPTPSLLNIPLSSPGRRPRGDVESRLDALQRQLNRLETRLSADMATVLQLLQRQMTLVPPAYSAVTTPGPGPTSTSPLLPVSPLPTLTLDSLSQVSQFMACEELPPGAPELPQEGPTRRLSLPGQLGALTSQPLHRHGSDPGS

Row | SMILES | hERG current change (%, negative = inhibition) at 10uM
1 | CCCCn1c(N)c(N(CCOC)C(=O)C2CCN(S(=O)(=O)c3ccc(Cl)cc3)CC2)c(=O)[nH]c1=O | 20.7%
2 | COC(=O)c1sc(N)c(C(=O)OC)c1COC(=O)CNS(=O)(=O)c1ccc(C)cc1 | -4.4%
3 | O=C(Nc1cccc(S(=O)(=O)NC2=NCCC2)c1)c1cc(Cl)ccc1[N+](=O)[O-] | 2.97%
4 | CN(Cc1ccccc1)S(=O)(=O)c1cccc2cccnc12 | -9.39%
5 | O=C(N/N=C/c1ccncc1)c1cccc([N+](=O)[O-])c1 | -5.83%
6 | O=C(Nc1ccccc1Cl)c1ccccc1 | 4.52%
7 | O=S(=O)(Nc1cccc(-c2ccc(N3CCCCCC3)nn2)c1)c1ccccc1F | 11.7%
8 | COc1ccc(C2CC(=O)Oc3c(C(CCN4CCN(c5ccccc5)CC4)c4ccc(N(C)C)cc4)c(OC)cc(OC)c32)cc1 (stereo not drawn) | 18.4%
9 | CC(C)(C)C(=O)C[n+]1ccc(C(N)=O)cc1.[Br-] | 0.811%
10 | O=C(C/C=N/OCc1ccc(Cl)cc1Cl)c1ccccc1 | -6.79%
11 | O=c1nc2ccccc2c2n1CC(CN1CCN(Cc3ccccc3)CC1)N2 (stereo not drawn) | -66.1%
12 | CCCOC(=O)C1C2C=CC(C2)C1C(=O)OCC(=O)c1ccccc1 (stereo not drawn) | -18.1%
13 | Cc1ccc(S(=O)(=O)c2nc(S(C)(=O)=O)sc2N2CCC(O)CC2)cc1 | -11.8%
14 | C=CCn1c(SCC(=O)N2CCN(c3ccccc3)CC2)nnc1-c1ccco1 | -25.7%
15 | CCCCn1c(N)c(N(CCOC)C(=O)c2ccc(-n3c(C)ccc3C)cc2)c(=O)[nH]c1=O | 8.54%
16 | CC1(NC(=S)Nc2ccccc2)CCS(=O)(=O)C1 (stereo not drawn) | 13.8%
17 | O=C(N=C1SC2CS(=O)(=O)CC2N1c1ccc(Cl)cc1Cl)C1CCCO1 (stereo not drawn) | 0.438%
18 | COc1ccc(N2CC(=O)N(c3ccccc3)C2=S)cc1 | 3.25%
19 | CC(C)NC(=O)CN(Cc1ccc(F)cc1)C(=O)CCC(=O)Nc1nccs1 | 6.82%
20 | CCC(C)(C(=O)NC1CCCCC1)N(C)C(=O)c1ccccn1 (stereo not drawn) | 2.9%
21 | COC(=O)c1ccc(/C=C/c2c(-c3ccsc3)oc3ccc(N4CCOCC4)cc23)cc1 | 20.1%
22 | CCn1c(SCC(=O)Nc2oc(C)c3c(C)n[nH]c(=O)c23)nc2sc(C)c(C)c2c1=O | -61.7%
23 | COC(=O)c1ccccc1NC(=O)COC(C)=O | 4.95%
24 | COc1cc(NC(=O)CSc2nnc3n2C(C)(C)Cc2ccccc2-3)cc(OC)c1 | 10%
25 | CCS(=O)(=O)c1ccc(-c2cccc(NC(=O)c3ccco3)c2)nn1 | -3.4%
26 | CCN=C(Nc1cccc(F)c1)SC1CC(=O)N(c2ccc(OC)cc2)C1=O (stereo not drawn) | -3.5%
27 | Cc1ccccc1C(=O)N=c1ccn(-c2nc3ccccc3nc2NS(=O)(=O)c2ccc(F)cc2)cc1 | 21.8%

Row | SMILES | hERG current change (%, negative = inhibition) at 10uM
28 | Cl.NC12CC3CC(CC(C3)C1)C2 | 3.89%
29 | C[C@H](NC(=O)C1CCN(S(=O)(=O)c2ccccc2)CC1)C(=O)NCc1cccc(C(F)(F)F)c1 | -2.33%
30 | O=C(COc1ccccc1)NNc1c2ccccc2nc2ccccc12 | 6.67%
31 | O=C(NNC(=O)c1cccs1)c1cccc(F)c1 | 10.1%
32 | O=C1NNC(c2ccccc2)=N/C1=C\c1ccc(Cl)cc1 | -29.3%
33 | Cc1cc(C)cc(C(=O)NCC(=O)OCC(=O)N2CCN(S(=O)(=O)c3ccc4ccccc4c3)CC2)c1 | -4.69%
34 | COc1ccc(C(=O)Oc2ccc[nH]c2=O)cc1 | 12.5%
35 | CNC(=O)COC(=O)/C=C/c1c(C)nn(-c2ccccc2)c1C | -3.71%
36 | COc1ccc(S(=O)(=O)N2CCOCC2)cc1NC(=O)CSc1cccc[n+]1[O-] | -3%
37 | Cc1cc(C)nc(SC(C)C(=O)Nc2ccc(S(N)(=O)=O)cc2)n1 (stereo not drawn) | -2.33%
38 | O=C(Nc1ccc2sc3ccccc3c(=O)c2c1)c1ccccc1Cl | -5.74%
39 | O=C(c1csc(Nc2ccccc2Cl)n1)N1CCCC1 | -20.4%
40 | O=S(=O)(c1ccc(Cl)cc1)N1CCCC1c1nc(-c2ccc(Cl)cc2)no1 (stereo not drawn) | 18.9%
41 | NC1=NC[C@H](Cc2ccccc2)N1CCc1cc(C(F)(F)F)cc(C(F)(F)F)c1 | -3.82%
42 | Cc1c(NC(=O)c2cc(-c3ccc(F)cc3)on2)c(=O)n(-c2ccccc2)n1C | -9.68%
43 | O=C(CCN1C(=O)/C(=C/C=C/c2ccccc2)SC1=S)Nc1nccs1 | 0.13%
44 | O=C(N/N=C/c1ccc([N+](=O)[O-])cc1)c1cccnc1 | 0.658%
45 | CCOC(=O)c1[nH]c2ccc(Br)cc2c1NC(=O)CCN1CCN(C(=O)OCC)CC1 | -44%
46 | COCCCNC(=S)N/N=C/c1cccc(OC)c1O | 14.6%
47 | CCc1cccc2[nH]c3cc([N+](=O)[O-])ccc3c12 | 7.79%
48 | C=CCNc1nc(Cl)nc(Nc2cc(Cl)ccc2OC)n1 | 17.7%
49 | CC(C)OP(=O)(OC(C)C)C(NC(=O)c1cccc([N+](=O)[O-])c1)C(N)=O (stereo not drawn) | 4.87%
50 | CCC1SC2=NC(C)=C(C(=O)OCC(C)C)C(/C=C/c3ccccc3OC)N2C1=O (stereo not drawn) | -13.8%
51 | CC(C)n1cc(-c2nc(C(=O)NN)cs2)c(=O)n(Cc2ccccc2)c1=O | 0.862%
52 | CCN1CCCC1CNC(=O)c1csc2c1CCCC2 (stereo not drawn) | -38.9%
53 | Cc1ccc2[nH]c3nc(N/N=C/c4cccc(O)c4)nnc3c2c1 | 24.1%
54 | Cc1cccc(-n2c(O)c(/C=N/NC(=O)c3ccncc3)c(=O)[nH]c2=O)c1 | 13.5%
